# Reference: PubChem BioAssay AID624418 (National Center for Advancing Translational Sciences (NCATS), 2012)
# Out of some 410,000 compounds screened, about 530 (0.13%) were called active. The shares of active, inactive and inconclusive entries below differ from those in the screen. Calls follow the shape of the dose curve; as a rule, active = well fitted inhibition curve with a large enough effect; inconclusive = small, poorly fitted or top-dose-only effect, or another doubt; inactive = no such curve, though single readings can be large or run the other way. A potency beside an inconclusive call is a rough fit, not a confirmed value.
# Experiment: qHTS of GLP-1 Receptor Inverse Agonists: Cytotox Screen
# Details: HEK293 cAMP-luciferase reporter cells, luminescence, 24 h; series mostly up to 38.3 µM
# Outline: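 Step one: seed cells (200 cells/uL, DMEM with 10% Nu serum, 1% pen-strep). Step two: 12-hour incubation at 37 deg C. Step three: pin 23 nL compound, incubate 24 hr. Step four: add luciferase reagent, read luminescence 12 min later.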
# Potency is read from the fitted curve at half-maximal effect.
row,Compound,Potency
1,COc1cc(CNC2CCCC2)cc(Cl)c1OCc1ccc(F)cc1,"inconclusive: 28.2 µM [inhibitor, single point]"
2,COc1cc(Cl)c(NC(=O)c2cc(S(=O)(=O)N3CCOCC3)cn2C)c(OC)c1,inactive
3,CNC(=S)NNC(=O)c1cc(C(C)(C)C)nn1Cc1ccc(F)cc1,"inconclusive: 28.2 µM [inhibitor, single point]"
4,Cc1cccc(N=C2NN=C(c3c(C)[nH]c4ccccc34)CS2)c1,"inconclusive: 10 µM [inhibitor, partial curve, poor fit]"
5,COc1ccc(/C=C2/SC(=S)N(CCCC(=O)Nc3ccccc3C(=O)O)C2=O)cc1,"inconclusive: 20 µM [inhibitor, single point]"
6,O=C(CCSCc1ccccc1Cl)NCCc1ccccc1,inactive
7,O=C1C[C@@H]2c3c(cccc3CN1Cc1ccc(F)cc1)C[C@@H](O)[C@H]2O,"inconclusive: 3.16 µM [inhibitor, full curve, poor fit]"
8,S=c1nc2ccccc2c2nc(-c3ccccc3Cl)[nH]n12,inactive
9,CCN(Cc1nc2ccccc2c(=O)[nH]1)C(=O)c1cccc(NC(=O)c2cccs2)c1,"inconclusive: 11.2 µM [inhibitor, single point]"
10,COC(=O)/C(C#N)=C/c1ccc(OC(=O)c2ccccn2)cc1,"inconclusive: 28.2 µM [inhibitor, single point]"
11,CC1Cc2ccccc2N1c1ncnc(N)c1[N+](=O)[O-] (stereo unspecified),"inconclusive: 28.2 µM [inhibitor, single point]"
12,O=C(CN1C(=O)NC2(CCCC2)C1=O)Nc1cccc(Cl)c1Cl,inactive
13,Cc1ccc(Nc2c3c(nc4ccccc24)CCC3)cc1F,"inconclusive: 8.91 µM [inhibitor, partial curve, poor fit]"
14,COc1ccc(-n2nc(C(=O)NCC(=O)Nc3cc(OC)c(OC)c(OC)c3)c3ccccc3c2=O)cc1Cl,"inconclusive: 7.08 µM [inhibitor, partial curve, poor fit]"
15,O=C(NCc1cccs1)C1CC(c2ccccc2O)=NO1 (stereo unspecified),"inconclusive: 3.55 µM [inhibitor, full curve]"
16,CN(C)c1ccc(NC(=O)/C=C/c2c(Cl)cccc2Cl)cc1,"inconclusive: 22.4 µM [inhibitor, single point]"
17,Cc1cccc(-n2c3nc(=O)n(C)c(=O)c-3cc3c(C)nn(-c4ccccc4)c32)c1C,inactive
18,CSc1ncc2c(n1)-c1ccccc1N(Cc1ccccc1C)S2(=O)=O,inactive
19,Clc1ccc2c(NCc3ccccc3)ccnc2c1,"inconclusive: 28.2 µM [inhibitor, single point]"
20,CCOC(=O)c1cnn(-c2cccc(Cl)c2)c1C1CCN(C(=O)OC(C)(C)C)CC1,inactive
21,CC1=NN(c2ccccc2)C(=O)C1N=Nc1ccc(N)cc1 (stereo unspecified),"inconclusive: 12.6 µM [inhibitor, single point]"
22,Cc1nc(Sc2nnnn2C)c2c3c(sc2n1)CCC3,"inconclusive: 0.501 µM [inhibitor, full curve, poor fit]"

row,Compound,Potency
1,O=c1c(Cc2ccccc2)c(O)nc2n1CCS2,inactive
2,COc1cccc(NC(=O)OCCN2CCN(Cc3ccccc3)CCC2=O)c1,"inconclusive: 2.51 µM [inhibitor, full curve, poor fit]"
3,COc1ccccc1CN(Cc1cc2cc3c(cc2[nH]c1=O)OCCO3)Cc1nnnn1Cc1ccco1,inactive
4,Cc1ccc(CS(=O)(=O)Cc2ccc(C(=O)NCCCN3CC(C)CC(C)C3)o2)cc1 (stereo unspecified),"inconclusive: 28.2 µM [inhibitor, single point]"
5,Cc1cc(C(=O)N/N=C/c2c3ccccc3cc3ccccc23)n[nH]1,"inconclusive: 11.2 µM [inhibitor, single point]"
6,CCCC(=O)Nc1nnc(-c2ccc3c(c2)OCCO3)o1,inactive
7,CC(C)c1ccc(O)c(NC(=S)NC(=O)c2ccc3c(c2)OCO3)c1,"inconclusive: 12.6 µM [inhibitor, partial curve, poor fit]"
8,CN(C)N1C(N)=C(C#N)C(c2cccc3ccccc23)C2=C1CC(c1ccccc1)CC2=O (stereo unspecified),"inconclusive: 5.01 µM [inhibitor, full curve, poor fit]"
9,CCOC(=O)c1c(S(=O)(=O)N2CCN(c3cc(Cl)ccc3C)CC2)c(C)n(C)c1C,inactive
10,COc1cc2nc(C3CCC3)nc(N3CCN(c4ccccc4OC)CC3)c2cc1OC,"inconclusive: 11.2 µM [inhibitor, single point]"
11,COc1ccccc1C(CNC(=O)CNC(=O)c1ccc(Cl)c(Cl)c1)N1CCCC1 (stereo unspecified),"inconclusive: 20 µM [inhibitor, single point]"
12,O=[N+]([O-])c1ccc(N2CCSCC2)cc1,"inconclusive: 10 µM [inhibitor, partial curve, poor fit]"
13,CCC(C)Sc1ccc([C@@H]2[C@@H]3C(=O)N(CC)C(=O)[C@@H]3[C@]3(C(=O)OC)CCCCN23)cc1 (stereo partly specified),"inconclusive: 28.2 µM [inhibitor, single point]"
14,CC(C)=CCc1c(-c2ccc(O)cc2O)oc2c3c(cc(O)c2c1=O)OC(C)(C)C=C3,"inconclusive: 15.8 µM [inhibitor, single point]"
15,COc1ccc(NC(=S)NC(=O)/C=C/c2ccco2)c(OC)c1,"inconclusive: 11.2 µM [inhibitor, single point]"
16,Cc1ccc(C(C)C)c(OCc2ccc(-c3nnco3)cc2)c1,"inconclusive: 31.6 µM [inhibitor, single point]"
17,COc1ccc(C(=O)CSc2nc3[nH]ncc3c(=O)[nH]2)cc1,"inconclusive: 28.2 µM [inhibitor, single point]"
18,CC(=O)Nc1cccc(C(=O)OC(C(=O)c2ccc(C)c(C)c2)c2ccccc2)c1 (stereo unspecified),"inconclusive: 10 µM [inhibitor, partial curve, poor fit]"
19,Brc1ccc(-c2nc(-c3ccncc3)no2)cc1,inactive
20,CC(C)CN1C(=O)/C(=C/c2ccco2)NC1=S,"inconclusive: 22.4 µM [inhibitor, single point]"
21,C=CCC(Nc1ccccc1)C12C=CC(O1)C(C(=O)OC)=C2C(=O)OC (stereo unspecified),"inconclusive: 11.2 µM [inhibitor, partial curve, poor fit]"
22,Cc1cccc(OCC(=O)Nc2ccc(S(=O)(=O)N(Cc3ccccc3)c3ccccc3)cc2)c1,inactive

row,Compound,Potency
1,O=C(NNC(=O)C1CCCCC1)C(=O)NC1CCCCC1,inactive
2,Cc1ncoc1C(=O)NC1CC(C)(C)Cc2c1cnn2-c1ccc(F)cc1 (stereo unspecified),"inconclusive: 31.6 µM [inhibitor, single point]"
3,O=C(Cn1cnc([N+](=O)[O-])c1)Nc1cc(Oc2ccc(Cl)cc2Cl)cc([N+](=O)[O-])c1,"inconclusive: 11.2 µM [inhibitor, partial curve, poor fit]"
4,COc1cc(/C=N/NC(N)=O)cc([N+](=O)[O-])c1O,"inconclusive: 11.2 µM [inhibitor, partial curve, poor fit]"
5,CCOCc1c(C(=O)Nc2cc(OCC)c(N3CCOCC3)cc2OCC)oc2ccccc12,inactive
6,O=C1NC[C@H](c2ccccc2)N(CCc2cccc3ccccc23)C1=O,"inconclusive: 1 µM [inhibitor, full curve, poor fit]"
7,Cc1ccc(S(=O)(=O)c2c(C)nn(C(C)(C)C)c2OC(=O)c2ccc(Br)o2)cc1,"inconclusive: 28.2 µM [inhibitor, single point]"
8,COc1ccc(N(C(=O)/C=C/c2ccccc2)C2=CC3CCC(C2)N3C)cc1 (stereo unspecified),"inconclusive: 10 µM [inhibitor, partial curve, poor fit]"
9,COc1cc2ccccc2cc1C(=O)Nc1ccc2oc(=O)ccc2c1,"inconclusive: 28.2 µM [inhibitor, single point]"
10,CCN(Cc1ccc(O)cc1)CC1CCCN(CCc2cccc(F)c2)C1 (stereo unspecified),"inconclusive: 28.2 µM [inhibitor, single point]"
11,CCCCN=C1NN=C(c2ccc(C)c(C)c2)CS1,"inconclusive: 12.6 µM [inhibitor, single point]"
12,Cc1ccc(-c2nnc(NC3CCCCC3)c3ccccc23)cc1S(=O)(=O)N1CCN(C)CC1,"inconclusive: 28.2 µM [inhibitor, single point]"
13,CCCOc1ccc(C(=O)Nc2cccc(NC(=O)c3ccc(Cl)cc3Cl)c2)cc1,"inconclusive: 11.2 µM [inhibitor, partial curve, poor fit]"
14,Cc1cc(C)c2cc(CN(CCCN(C)C)C(=S)NCc3ccccc3)c(=O)[nH]c2c1,"inconclusive: 10 µM [inhibitor, single point]"
15,Cc1cccc(OCC(=O)N2CCC(N3CCCCCC3)CC2)c1,"inconclusive: 0.562 µM [inhibitor, full curve, poor fit]"
16,CSc1cccc(CN2CCCC(C(=O)Nc3cccc(-n4cccn4)c3)C2)c1 (stereo unspecified),"inconclusive: 10 µM [inhibitor, single point]"
17,O=c1[nH]n2c(=O)c3c([nH]c2c1N=Nc1ccccc1)CCC3,"inconclusive: 28.2 µM [inhibitor, single point]"
18,Cc1ccc(CNC(=O)c2ccc(C)s2)cc1,inactive
19,Cc1ccc(C)c(-n2c(-c3ccc4c(c3)OCO4)n[nH]c2=S)c1,inactive
20,c1ccc(-c2nc(NCc3ccco3)c3ccccc3n2)nc1,"inconclusive: 0.501 µM [inhibitor, full curve, poor fit]"
21,COc1cc(Cl)c(C)cc1NC(=O)Cn1cnc2sc(C)c(S(=O)(=O)N3CCCCC3)c2c1=O,inactive
22,CC(=O)Nc1ccc(-c2ccnc3c2CC(C(=O)Nc2cccc(Oc4ccccc4)c2)O3)cc1 (stereo unspecified),"inconclusive: 7.08 µM [inhibitor, partial curve]"
